Experimental data from PubChem BioAssay AID662 (National Center for Advancing Translational Sciences (NCATS), 2007).
About 1,800 (2.5%) of roughly 71,000 compounds were called active. This list was built around the results that the source calls inconclusive (neither active nor inactive); the mix of calls is not that of the screen. Calls come from the whole dose curve; as a rule, active = well fitted activation curve with a large enough effect in the signal ratio, with a control signal flat (not every such curve was filed as active); inconclusive = small, poorly fitted or top-dose-only effect, or effect the other way, or a change in a side signal; inactive = flat fitted curve, though single readings scatter; the % refers to the signal ratio. Potencies beside an inconclusive call are fits to weak or partial responses and may not hold up.

Assay: Cell signaling CRE-BLA (Fsk stim); for activity change, negative = inhibition: % of control where 0% means no effect
Conditions: CHO CRE-bla reporter (cAMP response element driving beta-lactamase), forskolin EC10, beta-lactamase ratio; activity change, negative = inhibition: at 38.2 µM (top of the series) unless noted
Procedure, shortened: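 Forskolin analogue NKH 477 at EC10 stimulated CRE-driven beta-lactamase in CHO cells alongside compound dilution series. Beta-lactamase was measured with CCF4, excitation 405 nm, emission ratio 460/530 nm.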
Potency is the fitted concentration of half-maximal effect; tags give direction and shape of the fitted curve.

| Compound | Potency | activity change, negative = inhibition |
| --- | --- | --- |
| CC(C)(C)c1cc(CN(CCO)CCO)cc(C(C)(C)C)c1O | inconclusive: 7.94 µM [rising, partial curve] |  |
| Cc1cc(N2CCOCC2)nc2ccc(NC(=O)CCC(=O)N3CCCC(C)C3)cc12 (stereo unspecified) |  | inconclusive: 9.1% |
| Cc1cc(C)cc(N(CC(=O)N2CCC(C)CC2)S(C)(=O)=O)c1 |  | inconclusive: -3.04% |
| O=C(Cc1ccc2cccnc2c1)c1ccc(O)cc1O |  | inconclusive: 9.62% |
| CN1CCN(c2ncnc3ccc(-c4ccccc4C#N)cc23)CC1 | active: 10 µM |  |
| Cc1nc2c3cnn(-c4ccccc4)c3ncn2n1 | inconclusive: 12.6 µM [rising, single point] |  |
| CCN(C(=O)CSc1nc2nc(C)cc(C)n2n1)c1cccc(C)c1 | inconclusive: 12.6 µM [rising, single point] |  |
| O=C(c1ccccc1)C(Sc1ncn[nH]1)c1ccccc1 (stereo unspecified) |  | inconclusive: -7.86% [at 7.6 µM] |
| COCCn1c(SCC(=O)Nc2sc(C)c(C)c2C#N)nnc1-c1ccc(OC)cc1 | inconclusive: 12.6 µM [rising, single point] |  |
| Cc1ccc(C(=O)Nc2ccccc2C(=O)NCc2ccco2)cc1S(=O)(=O)N1CCCCC1 | inconclusive: 12.6 µM [rising, single point] |  |
| CCOC(=O)c1ccc(NC(=O)CNC(=O)C2CCCCC2)cc1 |  | inconclusive: -23.6% [at 7.6 µM] |
| OCCNc1nc2ccc(Cl)cc2[nH]1 |  | inconclusive: -5.57% |
| COc1ccc(-c2nc3cnc(N4CCNCC4)nc3n(Cc3cccs3)c2=O)cc1 | inconclusive: 0.251 µM [rising, full curve] |  |
| O=C(Nc1cccc(F)c1)N1CC[C@@]2(CCCN(C(=O)c3cccc(F)c3)C2)C1 |  | inactive |
| O=C(Cc1cccs1)N(c1ccccc1)C1C=CS(=O)(=O)C1 (stereo unspecified) |  | inconclusive: -2.63% |
| COC(=O)C(C)N(C#N)c1nc(C)nc(C)n1 (stereo unspecified) | inconclusive: 6.31 µM [rising, partial curve] |  |
| CC(=O)N1[C@H](C)C=C[C@]1(Cc1ccccc1)C(=O)NCCc1c[nH]c2ccccc12 |  | inactive |
| COc1ccc(OC)c(NC(=O)CN(c2ccc(C)cc2)S(=O)(=O)c2c(C)noc2C)c1 | inconclusive: 12.6 µM [rising, single point] |  |
| c1ccc(-c2nn3c(-c4ccco4)nnc3s2)nc1 |  | inconclusive: 8.63% |
| CC1(C)CC(=O)C2=C(C1)NC(SCC(=O)Nc1ccccc1)=C(C#N)C2c1ccco1 (stereo unspecified) | active: 12.6 µM |  |
| O=C(c1cc2nc(-c3ccco3)cc(C(F)(F)F)n2n1)N1CCN(c2ccc(F)cc2)CC1 | inconclusive: 12.6 µM [rising, single point] |  |
